# Data reported in PubChem BioAssay AID662 (National Center for Advancing Translational Sciences (NCATS), 2007).
# In all, about 71,000 compounds went through this assay and about 1,800 (2.5%) were called active. This list was built around the results that the source calls inconclusive (neither active nor inactive); the mix of calls is not that of the screen. Calls follow the shape of the dose curve; as a rule, active = well fitted activation curve with a large enough effect in the signal ratio, with a control signal flat (not every such curve was filed as active); inconclusive = small, poorly fitted or top-dose-only effect, or effect the other way, or a change in a side signal; inactive = flat fitted curve, though single readings scatter; the % refers to the signal ratio. Potencies of inconclusive entries are doubtful fits and often do not repeat.
# Experiment: Cell signaling CRE-BLA (Fsk stim); as to activity change, negative = inhibition: % of control where 0% means no effect
# Settings: CHO CRE-bla reporter (cAMP response element driving beta-lactamase), forskolin EC10, beta-lactamase ratio; activity change, negative = inhibition: at 38.2 µM (top of the series) unless noted
# Outline: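 Beta-lactamase reporter under a cAMP responsive element in CHO cells; compounds tested in titration series against EC10 NKH 477, 3 h at 37 °C. Read-out: CCF4 FRET ratio 460nm/530nm (excitation 405nm) giving %Activity, fitted to AC50.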
# Potency is read from the fitted curve at half-maximal effect; tags tell the direction and shape of the fitted curve.
SMILES,Potency,"activity change, negative = inhibition"
O=C(NCc1ccccn1)c1cnc2sccn2c1=O,"inconclusive: 0.01 µM [falling, full curve, poor fit]",
Nc1c(C(=O)NCCN2CCOCC2)c2nc3ccccc3nc2n1-c1ccccc1,,inconclusive: -8.18%
C=C(C)COc1ccc(-c2nc(N)ncc2-c2ccc(OC)cc2)c(O)c1,,inconclusive: -2.36%
COc1ccc(Cc2nnn(CC(=O)O)n2)cc1,,inconclusive: 12.4%
CCCCNC(=O)[C@@H]1Cc2ccccc2N1C(=O)[C@H](N)CC,,inactive: 2.39%
Clc1cc(Cl)c2nc(N3CCCC3)sc2c1,,inconclusive: 11.5%
CCOc1ccc2nc(SCC(=O)NC3CCS(=O)(=O)C3)[nH]c2c1 (centres undefined),,inconclusive: 14.9%
CS(=O)(=O)NCCSCc1ccco1,,inconclusive: 15.8% [at 7.6 µM]
CCCCOCCCNC(=O)C1CCCCC1,,inactive: 21% [at 7.6 µM]
COCCn1c(=O)c(-c2cc(F)cc(F)c2)nc2cnc(N3CCN(C)CC3)nc21,"inconclusive: 3.98 µM [rising, partial curve]",
O=C(Cn1[nH]c(=O)c2ccccc2c1=O)N1CC=C(c2ccccc2)CC1,,inactive: 18.1%
COc1ccc(-c2c(C)oc3c(CN4CCCCC4C)c(O)ccc3c2=O)cc1OC (centres undefined),,inactive: 2.43%
COC(=O)c1cccc(NC(=O)CN2CCC(NC(=O)c3cc(OC)c(OC)c(OC)c3)CC2)c1,"inconclusive: 10 µM [rising, partial curve]",
Cc1[nH]nc2c1C(c1ccc(F)cc1)C1=C(CC(C)(C)CC1=O)N2 (centres undefined),,inconclusive: -4.25%
Cc1cc(-n2ccc(=O)[nH]c2=O)nc(-c2ccccc2)n1,,inconclusive: 18%
O=C(Nc1ccc(-c2noc(CCc3ccccc3)n2)cc1)c1ccco1,,inconclusive: 13%
CCC1(CC)Cc2ccccc2-c2nc(CN3CCOCC3)[nH]c(=O)c21,"inconclusive: 10 µM [rising, partial curve]",
CCOc1ccccc1-n1c(SCC(N)=O)nnc1-c1ccc(O)cc1,,inactive: 1.32%
Cc1n[nH]c(=O)nc1N1CCc2ccccc2C1,,inconclusive: -5.6%
CCC(C)(C)n1nnnc1CN(Cc1cc2cc(OC)c(OC)cc2[nH]c1=O)C1CCCC1,,inconclusive: -4.61%
COc1ccc(NC(=O)CSc2nnc(-c3cccs3)n2Cc2ccco2)cc1OC,,inactive: 5.96%
CCOCCCNC(=O)NC12CC3CC(CC(C3)C1)C2,"inconclusive: 3.98 µM [rising, single point]",
O=C(Nc1ncc(Cc2ccccc2)s1)c1cccs1,,inconclusive: 8.57%
O=C(COC(=O)c1cccc(S(=O)(=O)N2CCN(c3ccccc3)CC2)c1)NCc1ccco1,,inactive: -16.2%
